In assay [1] the target is T1, hCD26 expressed on HEK293-hCD26 cells (human, UniProt P27487 1-766).
T1 construct: whole, on cells
Briefly: flow cytometry on HEK293-hCD26 cells. As for the experimental part: (§1) Flow cytometry was used to analyze the interaction of FAP binding proteins with cell surface-exposed hFAP and mFAP. FAP overexpressing human embryonic kidney cell line HEK293, CD26-overexpressing HEK293-cells, native FAP expressing cell line Wi38 and empty vector control HEK293-pEntry cells were used. The anti-hFAP antibody (R&D Systems, MAB3715-100) with a concentration of 1 μg/ml in combination with anti-mouse-IgG-Alexa488 (Invitrogen, A10680) with a 1:1000 dilution was used as positive control for hFAP-expressing cells. Anti-mFAP antibody (R&D Systems, MAB9727) with a concentration of 1 μg/ml in combination with anti-rat-IgG-Alexa488 (Invitrogen, A11006) with a dilution of 1:1000 was used as positive control for mFAP-expressing cells.
(§2) Cells were trypsinized and resupended in medium containing FCS, washed and stained in pre-cooled FACS blocking buffer (3% FCS/PBS). A suspension with a cell concentration of 1×10⁶ cells/ml was prepared for cell staining and filled with 100 μl/well into a 96 well plate (Greiner) in triplicate for each cell line.
(§3) Affilin® proteins were tested with a concentration of 1 μM, 100 nM, 10 nM, or 1 nM on FAP expressing cells HEK293-hFAP, HEK293-mFAP and Wi38-cells. To exclude an unspecific binding, Affilin® proteins were also incubated on CD26 expressing cells HEK293-hCD26 and HEK293-mCD26 and control cells HEK293-pEntry with the same concentrations. […] Supernatants were removed after 45 min, cells were washed in blocking buffer and 100 μl/well rabbit anti-StrepTag antibody (GenScript; A00626), 1:300 diluted in FACS blocking buffer were added. After removal of the primary antibody, goat anti-rabbit-IgG-Alexa Fluor 488 antibody (Invitrogen; A11008) was applied in a 1:1000 dilution. Flow cytometry measurement was conducted on the Guava easyCyte 5HT device from Merck-Millipore at excitation wavelength 488 nm and emission wavelength 525/30 nm.
(In general: Flow cytometry measures light scatter and fluorescence of single cells or particles in a stream.)

Assay [2] has as its target T2, hFAP expressed on cell surfaces (HEK293-hFAP cells; native on Wi38 cells) (human, UniProt Q12884 1-760).
T2 construct: whole, on cells; also called cell surface-exposed hFAP
T2 sequence (looked up): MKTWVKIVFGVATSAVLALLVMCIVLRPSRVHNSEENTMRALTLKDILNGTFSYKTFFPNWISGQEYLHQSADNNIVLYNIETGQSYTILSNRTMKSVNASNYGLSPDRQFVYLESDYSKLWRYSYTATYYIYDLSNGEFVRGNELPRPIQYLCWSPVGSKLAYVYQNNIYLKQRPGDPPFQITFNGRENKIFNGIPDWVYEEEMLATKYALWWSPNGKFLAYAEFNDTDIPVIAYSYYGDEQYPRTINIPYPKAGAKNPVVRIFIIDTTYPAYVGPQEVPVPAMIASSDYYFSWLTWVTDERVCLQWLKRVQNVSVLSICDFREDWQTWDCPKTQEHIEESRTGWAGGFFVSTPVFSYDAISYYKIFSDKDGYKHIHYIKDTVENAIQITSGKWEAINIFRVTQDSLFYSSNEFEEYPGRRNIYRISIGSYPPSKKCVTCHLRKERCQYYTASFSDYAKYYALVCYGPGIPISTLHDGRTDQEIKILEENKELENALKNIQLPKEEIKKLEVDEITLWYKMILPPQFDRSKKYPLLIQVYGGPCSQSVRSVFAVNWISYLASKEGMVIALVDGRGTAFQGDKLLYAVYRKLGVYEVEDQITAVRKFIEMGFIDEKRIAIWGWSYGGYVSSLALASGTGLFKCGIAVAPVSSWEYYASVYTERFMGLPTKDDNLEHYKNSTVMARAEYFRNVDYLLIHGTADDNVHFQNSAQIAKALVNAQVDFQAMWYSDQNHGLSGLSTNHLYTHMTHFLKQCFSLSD
Briefly: flow cytometry, 1 µM Affilin on HEK293-hFAP cells. The procedure: as §1, §2
Affilin® proteins were tested with a concentration of 1 μM, 100 nM, 10 nM, or 1 nM on FAP expressing cells HEK293-hFAP, HEK293-mFAP and Wi38-cells. To exclude an unspecific binding, Affilin® proteins were also incubated on CD26 expressing cells HEK293-hCD26 and HEK293-mCD26 and control cells HEK293-pEntry with the same concentrations. […]

The target of assay [3] is T3, mCD26 expressed on HEK293-mCD26 cells (mouse, UniProt P28843 1-760).
T3 construct: whole, on cells
Kind of assay: flow cytometry on HEK293-mCD26 cells. As for the experimental part: as §1, §2, §3

Assay [4] has as its target T4, hCD26-Fc (human, UniProt P27487 29-766, limits assumed).
T4 construct: Off-target in SPR; the in-house construct is not described further; also called hCD26-Fc-His; not shown: Fc
Kind of assay: SPR, Fc-tagged CD26 captured on protein A. The procedure:
(§4) Recombinant protein A was immobilized on a High Capacity Amine sensor chip (Bruker) after NHS/EDC activation resulting in approx. 2000 RU with a Sierra SPR-32 system (Bruker). The chip was equilibrated with SPR running buffer (PBS 0.05%, Tween pH 7.3). Injection of ethanolamine after ligand immobilization was used to block unreacted NHS groups. The Fc-tagged FAP and CD26 target molecules were injected with 60 nM followed by the injection of FAP binding proteins. Upon binding, target analyte was accumulated on the surface increasing the refractive index. This change in the refractive index was measured in real time and plotted as response or resonance units versus time. The FAP binding proteins were applied to the chip in serial dilutions with a flow rate of 30 μl/min. The association was performed for 120 seconds and the dissociation for 180 seconds. After each run, the chip surface was regenerated with 30 μl regeneration buffer (10 mM glycine pH 2.0) and equilibrated with running buffer. Binding studies were carried out by the use of the Sierra SPR-32 system (Bruker); data evaluation was operated via the Sierra Analyser software, provided by the manufacturer, by the use of the Langmuir 1:1 model (RI=0). Evaluated dissociation constants (KD) were standardized against the immobilized protein and indicated.
On the technique in general: SPR reads the build-up and loss of mass on a sensor chip optically.

Assay [5] deals with T5, mCD26-Fc (mouse, UniProt P28843 29-760, limits assumed).
T5 construct: Off-target in SPR; construct not described further; also called mCD26-Fc-His; not shown: Fc
Briefly: SPR, Fc-tagged CD26 captured on protein A. As for the experimental part:
as §4

Assay [6] addresses T6, hFAP-Fc (human, UniProt Q12884 26-760).
T6 construct: extracellular domain; Made in house in Expi293-F cells; also called hFAP-Fc-His; human FAP; not shown: IgG1-Fc
T6 sequence (looked up): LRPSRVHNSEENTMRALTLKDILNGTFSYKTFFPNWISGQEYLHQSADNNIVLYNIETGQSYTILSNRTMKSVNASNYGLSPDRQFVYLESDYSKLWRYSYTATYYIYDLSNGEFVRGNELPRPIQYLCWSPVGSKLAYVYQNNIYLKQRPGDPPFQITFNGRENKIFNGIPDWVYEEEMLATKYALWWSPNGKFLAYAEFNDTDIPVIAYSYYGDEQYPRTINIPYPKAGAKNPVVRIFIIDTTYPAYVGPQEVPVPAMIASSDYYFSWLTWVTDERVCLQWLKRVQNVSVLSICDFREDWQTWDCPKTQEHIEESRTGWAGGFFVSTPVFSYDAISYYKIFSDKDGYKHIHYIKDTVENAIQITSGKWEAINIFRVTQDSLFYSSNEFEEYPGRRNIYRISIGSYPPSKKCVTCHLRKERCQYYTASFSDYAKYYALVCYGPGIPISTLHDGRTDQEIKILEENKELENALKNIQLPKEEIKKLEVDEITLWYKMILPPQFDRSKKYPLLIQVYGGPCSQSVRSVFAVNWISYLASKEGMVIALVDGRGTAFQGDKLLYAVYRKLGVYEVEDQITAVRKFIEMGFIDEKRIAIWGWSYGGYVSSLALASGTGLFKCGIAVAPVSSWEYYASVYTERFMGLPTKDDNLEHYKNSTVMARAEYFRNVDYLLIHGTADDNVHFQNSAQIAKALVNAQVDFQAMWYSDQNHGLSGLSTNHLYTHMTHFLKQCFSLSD
Kind of assay: ELISA on coated hFAP-Fc; Affilin in mouse serum, 24 h at 37° C. The procedure: (§5) High binding plates (Greiner, 781061) were immobilized with 2.5 μg/ml hFAP-Fc over night at 4° C. Dilution series of 3 µM to 0.07 PM of Affilin® proteins were incubated in 100% human serum or 100% mouse serum for 24 h at 37° C.
(§6) ELISA-plates were washed three times with PBST (PBS+ 0.1% Tween) and blocked with 3% BSA/0.5% Tween/PBS 1 h at rt. After preincubation for 0 h or 24 h in the presence of serum the dilution series were incubated on ELISA-plates for 30 min at room temperature (rt). Wells were washed with PBST and incubated with biotinylated anti-ubiquitin-antibody (1:300) for 30 min at rt. The binding was visualized with Streptavidin-HRP (1:5.000). […] ELISA analysis confirmed the high stability of FAP binding proteins in serum.
Background: ELISA stands for enzyme-linked immunosorbent assay.

The target in assay [7] is T6, hFAP-Fc. Briefly: ELISA on coated hFAP-Fc; Affilin in human serum, 24 h at 37° C. The procedure: as §5, §6
The target of assay [8] is T6, hFAP-Fc. Kind of assay: SPR, hFAP immobilized on a CM-5 chip, 1:1 Langmuir (legend of FIG. 1B); hFAP immobilized on a CM-5 chip; legend of FIG. 1B.
Assay [9] addresses T6, hFAP-Fc. Kind of assay: SPR (Sierra SPR-32), hFAP-Fc captured on protein A, 1:1 Langmuir. As for the experimental part: as §4
Assay [10] concerns the target T6, hFAP-Fc. Kind of assay: ELISA on coated hFAP-Fc; Affilin in mouse serum, 0 h. As for the experimental part: as §5, §6
Assay [11] deals with T6, hFAP-Fc. Kind of assay: ELISA on coated hFAP-Fc; Affilin in human serum, 0 h. The procedure:
as §5, §6

Binding result and Kd data for two molecules are collected here from US20260176310A1 (NAVIGO PROTEINS, published 2026).

B1: Affilin®-217895 (designed binder)
chain: MQIFVHTWTGKTITMEVEPSDTIENVKAKIQDKEGIPPDQQRLIWAGKQLEDGRTLSDYNIGPMRWPHLVLRLRAAMQIFVWTDTGKTITLEVEPSDTIENVKAKIQDKEGIPPDQQRLIWAGKQLEDGRTLSDYNIWAPANLHLVLRLRAASAWSHPQFEK
notes: Ubiquitin mutein
As for B1, the binding result is “no binding (tested: 1 µM, 100 nM, 10 nM, or 1 nM)” in assay [1]; “binds” in assay [2]; “no binding (tested: 1 µM, 100 nM, 10 nM, or 1 nM)” in assay [3].

B2: Affilin®-217832 (designed binder)
chain: MQIFVWTRINKLITLEVEPSDTIENVKAKIQDKEGIPPDQQSLYWKGKQLEDGRTLSDYNINIWPNLYLSLRAA
notes: Ubiquitin mutein
Take B2: the binding result in [4] is given as “no binding”; in assay [5] it was “no binding”; in [1], “no binding (tested: 1 µM, 100 nM, 10 nM, or 1 nM)”; in assay [3] it was “no binding (tested: 1 µM, 100 nM, 10 nM, or 1 nM)”. Also, the Kd in assay [6] was found to be 0.7 nM; in assay [7], 0.5 nM; in assay [8], 3 nM; in [9] it was 3.2 nM; in assay [10], 0.3 nM; in assay [11], 0.4 nM.

The Kd is the constant that tells how readily two partners part at equilibrium. A high value points to lower affinity.
